Results reported in paper PMC4336329 (PLoS ONE, 2015).
Out of some 310,000 compounds screened, about 2,200 (0.71%) showed an effect of 50% or more. Effects have a minus sign here. The list shows a part of the results.

Target: human ether-à-go-go-related gene (hERG) potassium channel (human, UniProt Q12809)
Assay: primary screen, population patch clamp on CHO cells stably expressing hERG

Sequence of human ether-à-go-go-related gene (hERG) potassium channel (Q12809 whole entry, looked up): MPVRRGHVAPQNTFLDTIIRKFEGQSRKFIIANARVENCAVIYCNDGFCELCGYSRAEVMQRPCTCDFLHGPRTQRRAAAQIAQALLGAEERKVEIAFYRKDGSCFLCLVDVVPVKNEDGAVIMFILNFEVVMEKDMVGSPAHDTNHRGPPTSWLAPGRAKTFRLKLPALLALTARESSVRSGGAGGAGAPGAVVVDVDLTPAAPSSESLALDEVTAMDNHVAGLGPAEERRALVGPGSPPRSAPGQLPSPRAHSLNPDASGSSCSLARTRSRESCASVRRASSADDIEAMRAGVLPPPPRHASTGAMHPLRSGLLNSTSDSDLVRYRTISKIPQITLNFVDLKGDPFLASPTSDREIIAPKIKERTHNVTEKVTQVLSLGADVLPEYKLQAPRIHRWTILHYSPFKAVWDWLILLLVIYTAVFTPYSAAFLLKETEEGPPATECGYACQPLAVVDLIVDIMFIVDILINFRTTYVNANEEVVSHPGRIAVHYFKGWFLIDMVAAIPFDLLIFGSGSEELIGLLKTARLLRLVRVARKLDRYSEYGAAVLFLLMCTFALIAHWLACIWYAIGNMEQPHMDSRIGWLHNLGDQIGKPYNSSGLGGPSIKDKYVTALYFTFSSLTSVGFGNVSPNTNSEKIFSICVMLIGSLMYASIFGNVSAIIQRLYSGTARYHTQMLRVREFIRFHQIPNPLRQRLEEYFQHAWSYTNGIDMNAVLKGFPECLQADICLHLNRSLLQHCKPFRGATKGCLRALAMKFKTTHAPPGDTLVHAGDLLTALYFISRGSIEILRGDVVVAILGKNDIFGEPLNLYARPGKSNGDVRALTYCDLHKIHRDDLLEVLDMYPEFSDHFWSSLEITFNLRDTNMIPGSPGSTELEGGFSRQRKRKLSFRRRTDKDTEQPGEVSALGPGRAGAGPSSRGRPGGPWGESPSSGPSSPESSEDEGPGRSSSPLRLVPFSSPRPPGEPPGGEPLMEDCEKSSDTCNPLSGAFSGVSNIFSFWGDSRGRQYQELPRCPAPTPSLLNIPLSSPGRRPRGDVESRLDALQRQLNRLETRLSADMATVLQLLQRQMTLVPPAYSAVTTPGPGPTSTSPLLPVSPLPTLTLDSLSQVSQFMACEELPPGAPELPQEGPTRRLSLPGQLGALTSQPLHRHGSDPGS

In order of falling “hERG current change (%, negative = inhibition) at 1uM” value:
1. O=C(Cc1ccccc1)NCc1ccc(-n2cccc2)cc1  20.6%
2. O=C(CNC(=O)c1ccccc1Cl)NC1CCN(Cc2ccccc2)CC1  19.3%
3. Cc1ccc(C)c(Cn2nnc3c(=O)[nH]c(C4CCN(S(=O)(=O)c5ccc(S(=O)(=O)NC6CC6)cc5)CC4)nc32)c1  19.1%
4. O=C(NNC(=O)c1ccccc1O)c1ccco1  18%
5. Cc1cc(C)c2nc(NC(=O)CN3C(=O)NC4(CCCC4)C3=O)sc2c1  17.9%
6. Nc1nc(N)c2c(ccc3nccc32)[nH]1  16.9%
7. CCn1c(SCC(=O)NCC2CCCO2)nc2c(c1=O)SC(C)C2 (stereo not drawn)  16.9%
8. CSCC(=O)N1CCC(n2nccc2NC(=O)CCc2ccccc2)CC1  16.8%
9. COc1ccc(NC(=O)CCc2c(C)nc3nc(C)nn3c2C)cc1  16%
10. Cn1c(N)c(C(C[N+](=O)[O-])c2ccccc2Cl)c(=O)n(C)c1=O (stereo not drawn)  15.4%
11. Cc1ccc(NC(=O)CSc2ncn[nH]2)cc1  14.8%
12. Cl.c1ccc(COc2cccc(CNCc3cccnc3)c2)cc1  14%
13. COc1ccc(CCNC(=O)c2cccc(NS(=O)(=O)c3ccccc3F)c2)cc1OC  13.9%
14. Cn1c(SCC(=O)N2CCOCC2)nnc1-c1cccc(NC(=O)c2ccccc2F)c1  13.6%
15. NC(=O)CSc1nnc(Cn2cnc3ccccc32)o1  12.9%
16. COC(=O)c1ccc(Cn2nc(-c3ccc(C)c(C)c3)ccc2=O)cc1  12.9%
17. C#CCOCCOCCOCCNc1nc(N2CCN(C(=O)[C@H](Cc3ccc(O)cc3)n3cc([C@@H](N)C(C)CC)nn3)CC2)nc(N2CCN(C(=O)[C@H](Cc3cc4ccccc4[nH]3)n3cc([C@@H](N)Cc4ccc(O)cc4)nn3)CC2)n1.Cl (stereo partly drawn)  11.8%
18. C#CCNC(=O)C1=C[C@H](c2ccc(Br)cc2)C[C@H](OCCCCO)O1  11.3%
19. CC(=O)N1CCC(=O)Nc2ccc([N+](=O)[O-])cc21  10.9%
20. CCOc1cc(/C=N/NC(=O)c2cccnc2)ccc1OCC(N)=O  10.8%
21. Cc1ccc(CN2CCN(Cc3c(C)nn(C(C)C)c3C)CC2CCO)o1 (stereo not drawn)  10.6%
22. Cc1cnc(NC(=O)c2cncc(Br)c2)s1  8.91%
23. CC(OC(=O)c1ccc2ncsc2c1)C(=O)Nc1cccc(Cl)c1 (stereo not drawn)  8.7%
24. O=C(NN=C1CCCC1)c1cccs1  8.69%
25. CCOC(=O)c1cc(C)sc1NC(=O)C1CCC1  8.42%
26. NC(=O)CC1NC(=O)c2cc([N+](=O)[O-])cc(I)c2OCCC(C(N)=O)NC(=O)[C@@H]2CCCN2C1=O (stereo partly drawn)  8.11%
27. CC(=O)Nc1sc(NC(=O)c2ccco2)nc1-c1cccs1  7.58%
28. Cc1ccc(N2C(=O)N(CC(=O)Nc3ccc(C)c(C)c3)C(=O)C2C)cc1 (stereo not drawn)  7.57%
29. Nc1nc(SC2c3cccc4cccc(c34)C2NS(=O)(=O)c2ccccc2)n[nH]1 (stereo not drawn)  7.57%
30. C=C1C2(C(=O)NCc3ccco3)CCC(C2)C1(C)C (stereo not drawn)  7.25%
31. COc1ccccc1C(=O)NNC(=O)CCC(=O)NCc1ccccc1  7.06%
32. CCc1ccc(S(=O)(=O)NCCOc2cccc3cccnc23)cc1  7%
33. OCOCCCn1c(C2CCCN2c2nc(-c3ccc(F)cc3)cs2)nc2cc(Cl)c(N3CCCCC3)cc21 (stereo not drawn)  6.69%
34. Cc1cc(C)c(-n2c(O)c(/C=N/NC(=O)c3ccncc3)c(=O)[nH]c2=O)c(C)c1  6.69%
35. CSc1cccc(NC(=O)C2CC(=O)N(Cc3ccccc3)C2)c1 (stereo not drawn)  6.3%
36. Cc1cccc(NC(=O)CNC(=O)c2cn(Cc3ccccc3)nc2-c2cccnc2)c1C  5.89%
37. CCOc1ccc(NC(=O)CC2C(=O)N(CC)C(=S)N2CCN2CCOCC2)cc1 (stereo not drawn)  5.68%
38. O=C(COC(=O)c1c[nH]c2ccccc12)Nc1ccc([N+](=O)[O-])cc1  4.86%
39. CN(C)N=Nc1nc2c(c(=O)n(C)c(=O)n2C)n1CC1CO1 (stereo not drawn)  4.28%
40. CCOC(=O)c1[nH]cnc1C(=O)Nc1cccc(N)n1  4.15%
41. COc1cccc(NC(=O)CN(C)C(=O)Cc2ccc3c(c2)CCC3)c1  3.69%
42. Br.Cc1ccc(C(=O)C(c2ccccc2)N2Cc3ccccc3C2=N)cc1 (stereo not drawn)  3%
43. CN(C)C(CNC(=O)c1cccc(S(=O)(=O)NCc2ccccc2)c1)c1ccco1 (stereo not drawn)  2.97%
44. CCCCC#Cc1cncc(C(=O)N/N=C/c2cccc(OC)c2)c1  2.9%
45. CCn1c(SCC(=O)OCC(=O)N2c3ccccc3NC(=O)C2(C)C)nnc1-c1ccco1  2.83%
46. Cc1ccc(N2C(=O)c3ccccc3NC2(C(=O)O)c2ccccc2)cc1Cl (stereo not drawn)  2.47%
47. O=C(CCn1c(=O)oc2ccccc21)N1CCN(c2ccccc2Cl)CC1  2.43%
48. CN1CCN(C(=S)c2ccc(-c3cccc([N+](=O)[O-])c3)o2)CC1  0.959%
49. COc1ccccc1/C=N/NC(=O)CNC(=O)c1ccccc1  0.456%
50. CCOc1ccc(NC(=O)NNC(=O)c2cccnc2)cc1  -0.169%
51. Cc1ccnc(NC(=O)CCC(=O)N(CC(=O)NCc2ccccc2)Cc2cccs2)c1  -0.178%
52. CCOC(=O)C1CCN(C(c2ccccn2)c2c(C)[nH]c3ccccc23)CC1 (stereo not drawn)  -0.662%
53. O=C(Nc1cccc(C(F)(F)F)c1)C1CCCN1S(=O)(=O)c1cccc2cccnc12 (stereo not drawn)  -2.23%
54. Cc1ccc(S(=O)(=O)n2cnc3cc([N+](=O)[O-])ccc32)cc1C  -4.95%
